Results from the supplement of paper PMC3334620.
In all, about 33,000 sequences were measured (“E-score (-0.5 to 0.5)”: median about -0.056, highest 2% from about 0.38 on). Some of the results follow.

What follows are sequences tested against Stb4 (UniProt P50104) (assay: PBM E-score (8-mer binding enrichment) (E-score (-0.5 to 0.5)); higher = stronger / more preferred TF binding; most listed sequences are background and not binding sites). Conditions: protein concentration: 200 nM; construct: GST-DNA-binding domain.
Summary of the method: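 Using PURExpress in vitro transcription/translation, GST-tagged yeast transcription factors were made in full-length or DNA-binding-domain form. These were applied at about 100-200 nM to double-stranded universal all-10-mer Agilent arrays, and bound protein was detected with fluorescent anti-GST. Scans were normalised with masliner before the Universal PBM Analysis Suite assigned E-scores to ungapped eight-base words pooled with their reverse complements.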

Sequence	PBM E-score
CAAGAGAC	-0.228
ATCGCTGA	0.0763
ATGTGATG	-0.204
ACACTGCG	0.00398
CAAACGGA	0.237
AAGGAGGG	0.00782
CTACCTCC	-0.0117
AAAGTGCA	-0.0751
AAAAAGGC	-0.129
ACCCATAC	-0.159
ACTGCCCT	-0.0934
AGCCCAGG	-0.295
GACTTGTA	-0.0104
TCCAGACA	-0.0587
CCTCCTCA	-0.164
AACTGAGT	0.00065
AATGGTAT	-0.135
AGACACGC	0.0426
GTAACTCA	-0.151
GAGACGCC	0.0569
ACCAAATG	-0.0369
ACCCTAGT	-0.302
CGAAACAA	0.149
GTCATGAC	-0.0706
AAGAGCGA	-0.264

Sequence	PBM E-score
GCAATCCA	-0.0919
GAAACTCA	0.0867
CGTGGCCC	-0.0532
AATCTCGA	-0.0861
CGGATAAG	0.41
CGACTGCG	0.0315
GGGGTGCA	0.0814
ACCATATA	-0.114
ACTCGGAA	0.47
ACAACCGC	0.0664
TTCAGCAA	-0.302
CCCCAATC	-0.165
TATCGGCA	0.326
ATTTCGAC	-0.121
GGGCCCAC	-0.0293
ACCGCTCA	-0.0664
AATTTGAT	-0.106
CGTCGCTC	-0.0193
CGGGAGTA	0.374
GCAACAGC	-0.0897
GTCCTTTA	0.142
CGCGCCAG	0.104
GGCGGGAC	0.188
ACCTCGTC	-0.0708
ACGTAGAT	-0.0311

Sequence	PBM E-score
GATTCCAC	0.1
AGGACCAC	-0.134
CACAAAGA	-0.0857
GGCTTCGA	-0.0759
GGTGGAAA	-0.104
GTGCCTCA	-0.0701
GGATAATA	0.316
GTCGCAAC	-0.0824
CTAACATA	-0.0293
AAAGATTC	-0.0091
AAGGTGAC	-0.211
CACGCGGC	0.0138
CTCTGTTC	-0.0532
CTAGAAAA	0.143
CGATGGGC	-0.00861
CAATACTC	-0.0419
ATGAGCTC	0.0633
AAGGACAC	-0.109
ACTGTCGC	-0.0414
GGTAAAAA	0.14
TCTGATAA	-0.186
TATCCAAA	-0.184
GCTAAAGA	-0.0599
GAAGCTCC	0.158
CATACAGC	-0.216

Sequence	PBM E-score
CCCAAGCA	-0.138
GCTCCAGC	-0.135
GGGAGCAA	0.103
AGTCGTAA	0.134
GCCACGGC	0.0883
GGCACGGA	0.266
CTCTTGTA	-0.149
CCTCTCTA	-0.182
GGGTACAC	0.105
GCGCGTGA	-0.0758
AAAACCAC	0.0917
GACGCTTA	-0.235
ACACTAGG	-0.167
CTCCATAC	-0.0631
GAATCTAA	0.118
CATCCTAC	-0.206
AGCCACTG	-0.119
AAAGGAAT	0.00595
AGCTGGCC	-0.0691
GCGATTTA	-0.105
GATAGGGC	-0.0772
CCCCCGAA	0.297
GCCGGAAA	0.401
CTAAGGAG	-0.246
CCCGTATC	0.232

Sequence	PBM E-score
TAGTCACA	-0.159
GGTTGCAC	-0.084
GAGCCTCA	-0.256
ACGGCTAT	0.226
GGGCTCGA	-0.205
AAAATTGG	-0.215
CCGTTGTC	0.151
CTGGTTGC	-0.0148
GAATTAAC	0.0265
CAGTAGAC	-0.0882
GGTGGTTA	0.202
AACACAGA	-0.0514
CACGGCGC	0.0731
ACTCGGTA	0.322
AAGATCAG	-0.145
TAGCCCTA	-0.0989
CCTATTCG	0.0717
CGCGCAGC	-0.00067
CTCTGATA	-0.109
GAGCACGC	-0.0411
AAAGTCGA	-0.197
ACCGTCTA	0.053
AACACGCT	-0.031
AATCATAC	0.0264
CTGTGTCC	-0.253

Sequence	PBM E-score
CTTTTCTC	-0.21
ACTCTAGC	-0.253
ATAGAAAT	0.0639
CGACTATC	0.0582
ATCCCCAA	-0.223
TAGGGCGA	-0.254
CAAGTCTA	-0.0754
TAATGAGA	-0.143
CCTGGTCC	-0.116
CCCTCCGA	0.264
AGTGATTA	-0.0427
AATCTGAC	-0.203
CATACTTA	-0.179
GGCTCTCA	-0.0898
GCTTTGCA	-0.0503
CTGGCGCA	-0.219
CTTACGGC	0.0694
CCGTCCTC	0.207
AACCTTTA	-0.013
AAACCGGA	0.284
AACACCCC	0.0426
CTTTTAGA	-0.0842
CCAAGTAA	-0.146
GTGCCCAC	-0.134
CCCCCGCC	0.0528

Sequence	PBM E-score
GACACAGC	-0.135
GACGAGTA	-0.167
AGAGTTAT	-0.155
AGGGTGGA	-0.211
ACTTACGA	-0.00707
CAGTGTAG	-0.047
ATAACCTC	-0.00927
ATAGTATG	0.00469
CACCCGCC	0.311
TAGGAGGA	-0.193
CCCTGGCA	0.0575
ACCTCAAA	-0.0898
CGGGAAGC	0.299
GGAACTAC	0.0741
GAAAAACA	0.0163
ATATCAAC	-0.0196
GCTCACAA	-0.133
ATATATAT	0.164
CGTCCAAC	-0.124
CTAGGCTC	-0.143
ACCGCGTG	0.053
AAGACACA	-0.248
